Source: the supplement of paper PMC12217912
The other results are listed elsewhere or left out. Sequences were assembled here from the parent chain. Inactive controls read about 0.05.

B1: TEV protease; numbered along this chain (parent)
chain: MGESLFKGPRDYNPISSSICHLTNESDGHTTSLYGIGFGPFIITNKHLFRRNNGTLVVQSLHGVFKVKDTTTLQQHLVDGRDMIIIRMPKDFPPFPQKLKFREPQREERICLVTTNFQTKSMSSMVSDTSCTFPSGDGIFWKHWIQTKDGQCGSPLVSTRDGFIVGIHSASNFTNTNNYFTSVPKNFMELLTNQEAQQWVSGWRLNADSVLWGGHKVFMVKPEEPFQPVKEATQL

Variants of: B1
Experiment: raw area under fraction-flipped curve 0-4 h after induction (AUC4h, not background-subtracted), DNA-recorder readout of cleavage of the substrate (dimensionless); higher = more cleavage of the substrate by the protease variant
Conditions: temperature: 34 °C; time window: 0-4 h after rhamnose induction
Description: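 In vivo DNA recorder in E. coli TOP10(DE3) ΔrhaA at 34 °C. Each TEVp single-site mutant (parent TEVp 0) is paired with a single-site variant of the 7-mer TEVs (canonical ENLYFQ|S). The substrate sits between flexible linkers in a Bxb1-sfGFP-TEVs-SsrA fusion, so cleavage stabilises Bxb1 and speeds flipping of a recombination array, read by NGS. The value is the raw area under the fraction-flipped curve over 0-4 h after rhamnose induction (AUC4h), with ≥20 reads per time point. It is not background-subtracted; inactive controls average about 0.047.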
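Also: Bxb1 expression induced with 0.2% (w/v) L-rhamnose at OD600 near 0.5, cultures sampled hourly, flipped fraction per protease–substrate barcode pair counted by paired-end Illumina sequencing.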

| Variant | area with substrate CNLYFQS | area with substrate DNLYFQS | area with substrate FNLYFQS | area with substrate GNLYFQS | area with substrate HNLYFQS | area with substrate INLYFQS | area with substrate LNLYFQS | area with substrate MNLYFQS | area with substrate NNLYFQS | area with substrate PNLYFQS | area with substrate RNLYFQS | area with substrate SNLYFQS | area with substrate TNLYFQS | area with substrate VNLYFQS | area with substrate WNLYFQS | area with substrate YNLYFQS | area with substrate KNLYFQS | area with substrate QNLYFQS |
| --- | --- | --- | --- | --- | --- | --- | --- | --- | --- | --- | --- | --- | --- | --- | --- | --- | --- | --- |
| L191F | 0.0554 | 0.0731 | 0.0716 | 0.0593 | 0.0597 | 0.056 | 0.0576 | 0.0562 | 0.0693 | 0.0585 | 0.0575 | 0.0644 | 0.0635 | 0.0713 | 0.0569 | 0.0572 | – | – |
| L191K | 0.0561 | 0.0456 | 0.0533 | 0.0451 | 0.0599 | 0.0336 | – | 0.0507 | 0.0495 | 0.0628 | 0.0334 | – | 0.0617 | – | 0.0519 | 0.0504 | 0.0587 | – |
| L191Y | 0.0666 | 0.0571 | 0.0535 | 0.0072 | 0.0629 | – | – | 0.0503 | – | 0.0567 | – | 0.0576 | 0.056 | – | 0.0384 | 0.0549 | 0.0703 | 0.0646 |
| T192M | 0.0619 | 0.078 | 0.0789 | 0.0703 | 0.0623 | 0.0571 | 0.063 | – | 0.0678 | – | – | – | 0.0673 | 0.0737 | 0.044 | 0.0669 | 0.0791 | 0.0852 |
| Q194F | 0.0871 | 0.0756 | – | 0.0987 | 0.0669 | 0.0719 | – | – | 0.0672 | – | – | – | 0.0634 | – | 0.0492 | 0.0592 | – | – |
| E195K | 0.0677 | 0.0749 | 0.0664 | 0.0785 | 0.0654 | 0.0427 | 0.056 | – | 0.0603 | 0.0611 | 0.0656 | 0.0699 | 0.0682 | – | 0.0613 | 0.0614 | – | 0.0633 |
| Q197D | 0.0512 | 0.0523 | 0.0691 | – | 0.0647 | – | 0.0518 | 0.0656 | 0.0654 | 0.0594 | – | – | 0.0691 | 0.0593 | 0.0717 | 0.0633 | – | – |
| W199E | 0.0686 | 0.055 | – | 0.0598 | 0.0588 | 0.0687 | 0.0652 | 0.0559 | 0.0632 | 0.0545 | 0.0688 | 0.0585 | 0.0563 | – | 0.0556 | – | – | 0.0753 |
| W199N | 0.0593 | 0.0571 | – | – | 0.0619 | 0.0637 | 0.0784 | – | – | 0.0666 | 0.0364 | – | 0.0722 | – | 0.059 | 0.0518 | – | 0.0559 |
| S201R | 0.0672 | 0.0909 | 0.0654 | – | 0.0672 | 0.0544 | 0.0434 | 0.0684 | 0.0621 | 0.059 | – | 0.0616 | 0.0601 | – | 0.0648 | 0.0704 | – | 0.0786 |
| G202Q | 0.0735 | 0.0665 | 0.0544 | – | 0.055 | – | 0.0604 | 0.0672 | 0.0633 | 0.0527 | – | – | 0.0614 | 0.0591 | 0.0554 | 0.0571 | 0.05 | 0.0657 |
| W203G | 0.0519 | 0.0464 | – | 0.0594 | 0.0483 | 0.0606 | 0.0449 | – | – | 0.0603 | 0.0576 | – | – | – | 0.063 | 0.063 | 0.0707 | – |
| W203N | 0.0614 | 0.0688 | 0.0584 | – | 0.0655 | – | – | 0.0661 | 0.0473 | 0.0545 | 0.058 | 0.0619 | 0.0551 | 0.0787 | 0.0519 | – | 0.0718 | 0.0633 |
| R204F | 0.0639 | 0.0792 | 0.0711 | 0.0701 | 0.0654 | 0.0565 | 0.0699 | 0.0682 | 0.0616 | 0.0656 | 0.0472 | 0.0811 | 0.106 | 0.0763 | 0.0655 | 0.0646 | 0.0725 | 0.0843 |
| R204L | 0.0652 | 0.0794 | 0.059 | 0.0656 | 0.0532 | 0.0592 | 0.0691 | – | – | 0.0699 | – | 0.0683 | 0.0643 | – | 0.0609 | 0.0494 | 0.0588 | – |
| L205G | 0.0654 | 0.0771 | 0.0451 | 0.0511 | 0.0592 | 0.0665 | 0.075 | – | – | 0.0574 | – | 0.0606 | 0.0589 | 0.0645 | 0.0585 | 0.0497 | – | 0.0836 |
| L205M | 0.0935 | 0.0997 | 0.0639 | 0.0802 | 0.0674 | 0.0699 | – | 0.0728 | 0.0632 | – | – | 0.0502 | 0.0743 | – | – | 0.075 | 0.0843 | – |
| S209V | 0.105 | 0.0887 | – | 0.0757 | 0.0715 | 0.0749 | – | 0.0786 | 0.0693 | 0.0803 | – | 0.0618 | 0.0672 | – | 0.0587 | 0.0801 | – | – |
| L211Q | 0.0556 | 0.0858 | 0.0529 | 0.0908 | 0.0654 | – | 0.0702 | 0.0692 | 0.0775 | 0.0653 | – | 0.0701 | – | – | 0.0522 | 0.0611 | 0.0599 | – |
| H215C | 0.0552 | 0.0827 | – | – | – | 0.07 | 0.0456 | – | – | – | – | – | – | 0.0315 | 0.0642 | 0.0615 | – | – |
| V217C | 0.0732 | 0.101 | 0.058 | 0.0666 | 0.0557 | 0.0573 | 0.0553 | 0.0602 | 0.0534 | 0.0761 | – | 0.071 | 0.0636 | 0.0767 | 0.061 | 0.0613 | 0.0707 | – |
| V217P | 0.0651 | 0.0737 | 0.0767 | 0.0327 | 0.0585 | 0.0524 | 0.066 | – | 0.0503 | 0.0578 | – | 0.0442 | 0.0636 | 0.0371 | 0.0548 | – | 0.0539 | 0.0575 |
| M219S | 0.0592 | 0.0694 | 0.0977 | 0.0693 | 0.0555 | 0.0472 | 0.0573 | – | 0.0492 | 0.0621 | 0.0616 | 0.0576 | 0.0598 | – | 0.0509 | 0.067 | 0.0617 | 0.0561 |
